Test results taken from the supplement of paper PMC4967469.
IC50 is the fitted dose that halves viability relative to control wells, and lower means more sensitive; fits outside the tested doses are given as limits. The AUC spans the tested range (256-fold, ending at the top dose) of the same fit: 1 means no effect, lower means more sensitive. For some assays here: A top dose marked as inferred was derived from the fitted curves, not read from the paper.

Assays:
Test in all cases: Viability of human cancer cell lines after 72 h of drug (GDSC screen)
[1] = compound: N=C(N)NC(=N)NCCc1ccccc1 [Phenformin]; details: top dose 4000 µM; top dose inferred
Procedure: (§1)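 Human cancer cell lines in 384-well plates, medium with 10% serum, drug for 72 h over a 256-fold dose range (nine 2-fold or five 4-fold steps up to the top dose). Adherent lines were fixed and stained with the nucleic acid dye Syto60, suspension lines read with resazurin; signal relative to control wells, capped at 0 and 100%. One two-parameter sigmoid per drug and line, fitted in a mixed model over all curves with the slope shared within a line.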

[2] = compound: COc1cc2ncnc(Nc3cc(Br)c(O)c(Br)c3)c2cc1OC [WHI-P97]; details: top dose 10.24 µM; top dose inferred
Procedure: as §1

[3] = compound: C#Cc1cccc(Nc2ncnc3cc(OCCOC)c(OCCOC)cc23)c1 [Erlotinib]; details: top dose 2 µM
Procedure: as §1

[4] = compound: O=c1cc(CN2CCOCC2)occ1OCCCCCSc1ccnc2cc(C(F)(F)F)ccc12 [EHT 1864]; details: top dose 10 µM; top dose inferred
Procedure: as §1

[5] = compound: O=c1cc(N2CCOCC2)oc2c(-c3cccc4c3sc3ccccc34)cccc12 [NU-7441]; details: top dose 2 µM; top dose inferred
Procedure: as §1

[6] = compound: CNCc1ccc(-c2[nH]c3cc(F)cc4c3c2CCNC4=O)cc1 [AG-014699]; details: top dose 5 µM; top dose inferred
Procedure: as §1

[7] = compound: N[C@@H](CSC(c1ccccc1)(c1ccccc1)c1ccccc1)C(=O)O [S-Trityl-L-cysteine]; details: top dose 5.12 µM; top dose inferred
Procedure: as §1

[8] = compound: COc1cc2nccc(Oc3ccc(NC(=O)C4(C(=O)Nc5ccc(F)cc5)CC4)cc3)c2cc1OC [XL-184]; details: top dose 5.12 µM; top dose inferred
Procedure: as §1

[9] = compound: COc1cc2ncnc(Nc3ccc(F)c(Cl)c3)c2cc1OCCCN1CCOCC1 [Gefitinib]; details: top dose 0.5 µM
Procedure: as §1

[10] = compound: C=CC(=O)Nc1cc(NC(=O)c2ccc(C)c(NC(=O)c3ccno3)c2)cc(C(F)(F)F)c1 [QL-XI-92]; details: top dose 10.24 µM; top dose inferred
Procedure: as §1

[11] = compound: CCC1=C[C@@H]2CN(C1)Cc1c([nH]c3ccccc13)[C@@](C(=O)OC)(c1cc3c(cc1OC)N(C)[C@H]1[C@@](O)(C(=O)OC)[C@H](OC(C)=O)[C@]4(CC)C=CCN5CC[C@]31[C@@H]54)C2 [Vinorelbine]; details: top dose 0.064 µM; top dose inferred
Procedure: as §1

Cell Line | AUC [1] | IC50 [1] [µM] | AUC [2] | IC50 [2] [µM] | AUC [3] | IC50 [3] [µM] | AUC [4] | IC50 [4] [µM] | AUC [5] | IC50 [5] [µM] | AUC [6] | IC50 [6] [µM] | AUC [7] | IC50 [7] [µM] | AUC [8] | IC50 [8] [µM] | AUC [9] | IC50 [9] [µM] | AUC [10] | IC50 [10] [µM] | AUC [11] | IC50 [11] [µM]
LU-65 (large cell lung carcinoma, suspension) | 0.69 | 949 | 0.92 | > 10.2 | 0.935 | > 2 | 0.932 | > 10 | 0.987 | > 2 | 0.987 | > 5 | 0.894 | > 5.12 | 0.89 | > 5.12 | 0.987 | > 0.5 | 0.977 | > 10.2 | 0.792 | 0.035
LU-134-A (small cell lung carcinoma, suspension) | 0.762 | 1520 | 0.987 | > 10.2 | 0.987 | > 2 | 0.986 | > 10 | 0.977 | > 2 | 0.905 | > 5 | 0.858 | 4.66 | 0.95 | > 5.12 | 0.983 | > 0.5 | 0.901 | > 10.2 | 0.808 | 0.0357
MEG-01 (chronic myeloid leukaemia, suspension) | 0.528 | 296 | 0.948 | > 10.2 | 0.96 | > 2 | 0.982 | > 10 | 0.988 | > 2 | 0.988 | > 5 | 0.766 | 1.78 | 0.636 | 0.744 | 0.984 | > 0.5 | 0.73 | 2.76 | 0.767 | 0.0224
MLMA (hairy cell leukaemia, semi-adherent) | 0.549 | 341 | 0.928 | > 10.2 | 0.98 | > 2 | 0.919 | > 10 | 0.926 | > 2 | 0.979 | > 5 | 0.857 | 4.22 | 0.832 | 3.32 | 0.963 | > 0.5 | 0.746 | 3.26 | 0.728 | 0.018
MRK-nu-1 (breast, suspension) | 0.589 | 429 | 0.983 | > 10.2 | 0.987 | > 2 | 0.945 | > 10 | 0.99 | > 2 | 0.99 | > 5 | 0.568 | 0.482 | 0.97 | > 5.12 | 0.99 | > 0.5 | 0.99 | > 10.2 | 0.51 | 0.00425
